Like-named read-outs stand apart in the source and are kept apart here.
Target: ATP-sensitive K+ channels (K-ATP channel) (Rattus norvegicus, UniProt Q09429)

“3-[(3-trifluoromethyl)phenyl]-5-[(4-carboxyphenyl)methylene]-2-thioxo-4-thiazolidinone [CFTRinh-172]” was tested, and the “effect on membrane potential” value (5 μM) was “small hyperpolarization” and the “effect on membrane potential” value (2 and 5 μM) was “did not depolarize membrane potential”.

From patent US20040063695A1, “Cystic fibrosis transmembrane conductance regulator protein inhibitors and uses thereof” (priority 2002, published 2004)
